Source: ChEMBL document CHEMBL5308541, “MAIP: An Open-Source Tool to Enrich High-Throughput Screening Output and Identify Novel, Druglike Molecules with Antimalarial Activity” (ACS Med Chem Lett, 2023)
About 410 (8.5%) of roughly 4,800 compounds showed an effect of 50% or more. The list shows a part of the results.

tested on: Plasmodium falciparum; assay: Confirmatory screen in NF54 pLDH assay, in single point, at 2uM, 72h; type: functional, Erythrocyte; settings: timepoint 72 hour

Row | SMILES | % Inhibition
1 | c1cc(CN2CCN(c3cc(N4CCN(Cc5ccncc5)CC4)ncn3)CC2)ccn1 | 6%
2 | Cc1sc2nc(-c3ccccn3)nc(NCCc3nccn3C)c2c1-c1ccccc1 | 65%
3 | Cc1nc(N2CCN(C)CC2)cc(N2CCN(S(=O)(=O)c3ccccc3C(F)(F)F)CC2)n1 | 56%
4 | Nc1ccnc2ccc(-c3ccc(C(=O)NCC4CCOCC4)cc3)cc12 | 102%
5 | CN1CCC(CNC2CC3CC(C2)N(C(=O)OC(C)(C)C)C3)CC1 (stereo not drawn) | 2%
6 | Cc1ccc2nc(NC[C@H]3CCN(C4CC4)C3)cc(C)c2c1 | 100%
7 | COc1ccc2c(O)c(Br)c(C)nc2c1 | 72%
8 | C[C@@H](c1cccc(-c2nc3cc(C#N)ccc3[nH]2)c1)N(C)C | 29%
9 | N[C@H]1CC[C@@H](NC2CCN(c3ccc(F)c(F)c3)CC2)CC1 | 35%
10 | Cn1nnc(C(=O)N2CCCCC23CCCCCC3)n1 | 59%
11 | Cc1cc(O)c(Cl)cc1-c1cccc2c(N)ccnc12 | 94%
12 | CCCN(CCN1CCN(CC)CC1)c1nc(-c2ccccn2)nc2c1CCC2 | 10%
13 | Cc1cc(C)c(CN2CCN(C)CC2)cc1CNCCCn1ccnc1C | 44%
14 | CCN1CCC(N2CCC(C(=O)NCCc3ccc(OC(F)(F)F)cc3)CC2)CC1 | 53%
15 | COc1ccc2c(C)cc(NCCCN3CCC[C@H](C(N)=O)C3)nc2c1 | 100%
16 | Cc1noc(-c2ccnc(NC[C@@H](c3ccccn3)N3CCOCC3)c2)n1 | 100%
17 | COc1ccc(-c2cc(-c3ccccc3O)n([C@@H]3C(=O)Nc4ccc(Br)cc43)n2)cc1 | 46%
18 | CCOc1cc2nccc(N3C[C@H]4CN(C)C[C@H]4C3)c2cc1OCC | 96%
19 | O=C(NCc1cccc(-c2cccnc2)c1)N[C@H]1CCN(C2CCCCC2)C1 | 45%
20 | Cc1ccc(-c2cccc3c(C(=O)NCCCN4CCC(N5CCCCC5)CC4)cc(C)nc23)cc1 | 103%
21 | Cc1ccc2nc(-c3cccc(NC(=O)c4ccc(OC(F)(F)F)c(Cl)c4)c3)[nH]c2n1 | 74%

Row | SMILES | % Inhibition
22 | Cc1cc(N2CCC(NC3CCCC3Cc3ccc(F)cc3)CC2)nc(N)n1 (stereo not drawn) | 103%
23 | O=C1CN(C(=O)c2ccnc3ccccc23)CCN1Cc1ccccc1F | 63%
24 | NC(=O)[C@]1(O)CCN(c2ccnc3ccc(Oc4ccccc4)cc23)C1 | 33%
25 | FC(F)(F)c1ccc(N2CCC[C@H](NC3CCN(Cc4ccco4)CC3)C2)nc1 | 38%
26 | CC(NC(=O)OC(C)(C)C)C1CCN(C[C@@H]2CCCN2C(=O)OC(C)(C)C)CC1 (stereo partly drawn) | 20%
27 | CNc1nc(C)c(-c2ccnc(Nc3cccc(S(C)(=O)=O)c3)n2)s1 | 45%
28 | COc1ccc2[nH]cc(C3=CCN(c4ccc5nnc(-c6ccccc6F)n5n4)CC3)c2c1 | 41%
29 | Nc1cc(N2CCC(c3nc4cc(F)ccc4[nH]3)CC2)nc(N2CCOCC2)n1 | 42%
30 | CN1CCC(N(C)C[C@H](Nc2ncnc3ccccc23)c2ccccc2)CC1 | 102%
31 | CCC1(NC(=O)c2cc(C)c3ccccc3n2)CCOCC1 | 11%
32 | COc1ccc(-c2cccc3[nH]ccc23)nn1 | -1%
33 | Cc1cc(N2CC3COCCC3(C(=O)O)C2)nc2ccc(F)cc12 (stereo not drawn) | 10%
34 | C[C@@H](c1ccc(-c2c(-c3ccccc3)ncn2CCCN(C)C)cc1)N(C)C | 24%
35 | Oc1ccc(OC(F)(F)F)cc1-c1ccc2nccn2n1 | 92%
36 | CNC(=O)c1ccc(C(=O)Nc2nc(C3(C)CC3)ns2)cn1 | 6%
37 | COc1ccc2c(N3CC[C@H](CN4CCCC4)C3)ccnc2c1 | 102%
38 | Cc1cnccc1NCCNCc1ccc(OC(C)C)c(Cl)c1 | 84%
39 | Brc1cccc(NCCNC2CCN(Cc3cccnc3)CC2)c1 | 41%
40 | c1ccc2c(c1)CN(c1ncnc3[nH]ccc13)CC1(CCOCC1)O2 | -5%
41 | Cc1cc(N2CCC(NCCc3c[nH]cn3)CC2)nc(-c2ccccc2)n1 | 11%
42 | Cc1c(CN2CCC(O)(Cn3ccnc3)CC2)[nH]c2c(Cl)cccc12 | 99%

Row | SMILES | % Inhibition
43 | CC(C)c1ccc(-c2noc(CCN3CCN(CCCN(C)C)CC3)n2)cc1 | 30%
44 | Cc1cc(N2CCC(NC3CCNC(c4ccccc4)C3)CC2)nc(C)n1 (stereo not drawn) | 33%
45 | CCN(C)CC1CCN(c2nc(NCCOC)nc(N3CCC(CN(C)CC)C3)n2)C1 (stereo not drawn) | 2%
46 | Cc1cnc(NC2CC(=O)N3CCCCC23)nc1NC1CC(=O)N2CCCCC12 (stereo not drawn) | 8%
47 | N#Cc1ccc(N2C[C@H](COCC3CC3)C3(CCN(Cc4cccc(O)c4)CC3)C2)cc1C(F)(F)F | 89%
48 | Cc1cc(N2CCC(Nc3ccnc4ccncc34)CC2)nc(C)n1 | 7%
49 | Cc1ccc2nccc(N3CCC(N4CCC(O)CC4)CC3)c2c1 | 12%
50 | Cc1cnccc1N1CCCN(Cc2ccccc2OCCN2CCN(C)CC2)CC1 | 102%
51 | CCc1cc(NCCc2nc3cc(F)ccc3[nH]2)nc(-c2ccccn2)n1 | 9%
52 | c1ccc(CNc2ccc(-c3noc(C45CCCN(CCC4)C5)n3)cn2)cc1 | 99%
53 | CCNc1nc(C)cc(Nc2ccc(NC(=O)Nc3ccc(F)cc3F)cc2)n1 | 99%
54 | CN(C)CCN1CCC(CNCc2ccc3ncccc3c2)CC1 | 29%
55 | COc1ccc(OC2CCN(C3CCCC3)CC2)c(C(=O)NCc2cccc3[nH]ccc23)c1 | 41%
56 | CN(C[C@H](O)COc1cccc(CNCCCOc2cccnc2)c1)C1CCCCC1 | 44%
57 | CNc1nc(C)cc(N[C@@H]2COc3ccccc3C2)n1 | 89%
58 | COc1ccc2cc(NC(=O)c3cc(-c4c(C)nn(C)c4C)[nH]n3)cnc2c1 | 81%
59 | Cc1nc2ccc(Oc3ccccc3)cc2c(O)c1CN(C)C1CCN(C)CC1 | 28%
60 | O=C(NC1CCN(CCOc2ccc(Cl)cc2)CC1)c1c[nH]c2ccncc2c1=O | 100%
61 | Oc1cccc2c1CCC[C@@H]2NCc1ccc2occc2c1 | 55%
62 | c1cc(CNC2CCN(C[C@H]3CCOC3)CC2)c2cc[nH]c2c1 | -13%
63 | CC(C)(C)n1ncc2c(NCc3ccc4cccnc4c3O)ncnc21 | 37%
